Assay results taken from the supplement of paper PMC7826260.
The other results are listed elsewhere or left out. Viral Rep nickase domains cut single-stranded DNA in vitro (1 h at 37 °C, 3 µM enzyme); the outer parts of the 90-letter strands are left off. Uncut reads are compared with the no-enzyme pool on a log2 scale; strong cutting gives strongly negative numbers. There is no active / inactive call. The scaling is to total reads; uncut strands gain when others are lost, and binding without cutting may add a little.

Key:
Experiment in all cases: uncleaved DNA left, log2 of reads against the no-enzyme library (log2 ratio); higher = less cleavage (more negative = more Rep cleavage of the k-mer); sequences stand for … in CTCGTCCG…ACCGGAGA
[1] = test system: T1, Rep nickase domain of Muscovy duck circovirus
T1 sequence (residues 1-111, tag not shown): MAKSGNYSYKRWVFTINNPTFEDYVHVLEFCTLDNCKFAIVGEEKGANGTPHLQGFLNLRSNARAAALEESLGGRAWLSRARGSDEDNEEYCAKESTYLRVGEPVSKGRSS
Experimental: (§1)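 A pool of 90-nt single-stranded DNAs with seven random bases just before the constant AC of the nick site (name = the seven bases) was cut by 3 µM recombinant His6-SUMO-tagged Rep nickase domain (300 nM DNA, 50 mM HEPES pH 8.0, 50 mM NaCl, 1 mM MnCl2, 1 h, 37 °C, three replicates). Uncut DNA was amplified and sequenced.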

[2] = test system: T2, Rep nickase domain of banana bunchy top virus
T2 sequence (residues 1-94, tag not shown): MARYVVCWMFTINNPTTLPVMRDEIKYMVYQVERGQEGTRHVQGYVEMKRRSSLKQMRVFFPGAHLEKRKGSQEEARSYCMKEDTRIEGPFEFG
Experimental: as §1

[3] = test system: T3, Rep nickase domain of cabbage leaf curl virus
T3 sequence (residues 1-116, tag not shown): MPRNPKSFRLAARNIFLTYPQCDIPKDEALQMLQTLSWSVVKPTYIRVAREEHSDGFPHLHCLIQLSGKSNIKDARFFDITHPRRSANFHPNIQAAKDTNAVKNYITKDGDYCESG
Experimental: as §1

[4] = test system: T4, Rep nickase domain of chickpea chlorotic dwarf virus
T4 sequence (residues 1-124, tag not shown): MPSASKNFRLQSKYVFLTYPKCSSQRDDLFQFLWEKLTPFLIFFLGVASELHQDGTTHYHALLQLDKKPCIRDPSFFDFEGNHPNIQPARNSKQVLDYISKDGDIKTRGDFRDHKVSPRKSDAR
Experimental: as §1

[5] = test system: T5, Rep nickase domain of faba bean necrotic yellows virus
T5 sequence (residues 1-98, tag not shown): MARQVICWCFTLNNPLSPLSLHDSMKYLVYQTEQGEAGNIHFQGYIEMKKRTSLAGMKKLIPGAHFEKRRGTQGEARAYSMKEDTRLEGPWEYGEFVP
Experimental: as §1

[6] = test system: T6, Rep nickase domain of maize striate mosaic virus
T6 sequence (residues 1-117, tag not shown): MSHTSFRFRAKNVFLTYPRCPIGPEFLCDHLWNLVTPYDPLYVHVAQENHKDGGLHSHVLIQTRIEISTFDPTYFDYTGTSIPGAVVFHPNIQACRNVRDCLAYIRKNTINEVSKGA
Experimental: as §1

[7] = test system: T7, Rep nickase domain of porcine circovirus 2
T7 sequence (residues 2-116, tag not shown): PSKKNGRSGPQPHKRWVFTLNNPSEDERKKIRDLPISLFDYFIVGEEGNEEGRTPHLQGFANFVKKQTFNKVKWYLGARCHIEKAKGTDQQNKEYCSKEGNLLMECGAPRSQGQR
Experimental: as §1

[8] = test system: T8, Rep nickase domain of tomato golden mosaic virus
T8 sequence (residues 1-124, tag not shown): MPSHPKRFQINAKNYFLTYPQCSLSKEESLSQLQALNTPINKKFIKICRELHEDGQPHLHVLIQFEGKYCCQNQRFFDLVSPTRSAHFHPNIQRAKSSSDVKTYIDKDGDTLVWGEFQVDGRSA
Experimental: as §1

[9] = test system: T9, Rep nickase domain of tomato yellow leaf curl virus
T9 sequence (residues 1-136, tag not shown): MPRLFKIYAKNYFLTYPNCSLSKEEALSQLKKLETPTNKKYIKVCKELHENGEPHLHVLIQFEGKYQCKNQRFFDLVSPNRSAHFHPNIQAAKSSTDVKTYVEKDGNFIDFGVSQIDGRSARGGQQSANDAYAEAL
Experimental: as §1

[10] = test system: T10, Rep nickase domain of wheat dwarf virus
T10 sequence (residues 1-137, tag not shown): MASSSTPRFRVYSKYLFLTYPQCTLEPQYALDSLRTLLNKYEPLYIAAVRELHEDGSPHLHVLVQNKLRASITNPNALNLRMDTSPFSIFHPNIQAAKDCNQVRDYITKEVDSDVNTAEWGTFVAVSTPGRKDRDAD
Experimental: as §1

Sequence	uncleaved DNA left (log2) [1]	uncleaved DNA left (log2) [2]	uncleaved DNA left (log2) [3]	uncleaved DNA left (log2) [4]	uncleaved DNA left (log2) [5]	uncleaved DNA left (log2) [6]	uncleaved DNA left (log2) [7]	uncleaved DNA left (log2) [8]	uncleaved DNA left (log2) [9]	uncleaved DNA left (log2) [10]
CCCTGCT	-0.502	-0.068	-0.677	-1.32	-0.0681	-0.939	-2.23	0.0125	-0.0892	-0.105
TTTGGGA	0.0929	0.125	-0.044	-0.0662	0.109	-0.619	0.221	0.00726	0.129	0.0277
CCTGTTA	0.0282	0.0228	-0.0942	-1.22	0.113	-0.458	-0.0209	-0.0078	-0.175	0.00689
CTCAATT	-0.215	-0.16	-0.313	-2.43	-0.283	-0.719	-0.594	-0.248	-0.124	-0.271
CTTTGAA	0.029	0.0104	-0.162	-0.746	-0.0196	-1.07	-0.0556	0.0276	-0.0588	-0.0447
CCGGTCC	-0.00169	0.00879	0.286	0.311	-0.0199	0.992	0.0305	-0.0308	0.0497	-0.0253
ACCGTAG	0.129	-0.0119	-0.605	0.146	0.134	-0.593	0.226	0.0164	0.00765	-0.0183
CGGAGAC	-0.00299	-0.107	0.549	1.44	-0.128	1.73	0.174	-0.0214	-0.0503	-0.0177
AAATCTA	-0.13	0.172	-1.9	-2.72	0.109	-1.17	-1.24	-0.241	0.111	-0.521
AGATGAT	-0.0514	0.0464	0.277	1.08	0.0652	1.62	-1.25	0.202	-0.0581	-0.102
ACGCAAT	-0.0702	0.0962	-0.158	-0.493	0.127	-0.516	-0.0515	0.132	-0.119	-0.0311
TAGTTGT	-1.46	-1.89	-1.18	-2.12	-0.572	-0.867	-4.06	-0.159	-0.0489	-0.0809
ACCCTCC	0.13	0.0804	0.0944	0.365	0.0476	0.598	0.189	0.167	0.0461	0.0154
TAGTCTA	-0.0415	-0.627	-0.255	-2.3	-0.812	-0.172	-3.09	-0.00628	0.0951	-0.0418
TCGCGTA	0.0458	-0.0339	-0.599	-0.926	-0.0864	-1.07	0.0313	-0.105	-0.102	-0.0973
GCGGTGC	-0.0108	-0.0415	-0.0353	0.357	0.0131	-0.266	0.0615	-0.00132	-0.0362	-0.116
GCCGCAA	-0.0456	-0.0674	0.0343	0.182	-0.179	-0.147	0.0445	-0.0921	-0.102	-0.191
CCCCTTC	-0.228	-0.159	-0.152	-0.594	-0.181	-0.627	-0.0341	-0.111	-0.32	-0.121
GATACGT	0.0171	0.0396	0.176	0.417	-0.0894	0.432	-0.0473	-0.0161	-0.0488	0.0159
AAGACCG	-0.0329	-0.00801	-0.38	-0.597	0.0498	-0.885	0.136	0.0565	-0.0259	0.00223

Sequence	uncleaved DNA left (log2) [1]	uncleaved DNA left (log2) [2]	uncleaved DNA left (log2) [3]	uncleaved DNA left (log2) [4]	uncleaved DNA left (log2) [5]	uncleaved DNA left (log2) [6]	uncleaved DNA left (log2) [7]	uncleaved DNA left (log2) [8]	uncleaved DNA left (log2) [9]	uncleaved DNA left (log2) [10]
CGGCCTT	-0.157	-0.106	0.0279	-0.402	0.0201	0.588	-0.205	-0.167	-0.144	-0.0128
GTGAACG	0.154	0.0626	-0.35	-0.243	-0.0492	-0.52	0.143	0.0707	-0.0195	0.0237
ATTTGTT	-3.4	-3.45	-1.18	-2.79	-0.454	-1.4	-3.75	-0.339	-0.195	-1.11
ATGGCAG	-0.0231	0.102	-0.498	-0.187	0.17	-0.772	0.316	0.197	0.158	0.0339
CCTCTGG	0.105	-0.101	0.121	0.375	0.0448	-0.351	0.117	0.0278	-0.185	-0.0574
GGATGAC	0.0315	0.0373	0.808	1.92	-0.00282	2.14	0.114	0.0149	0.0536	0.144
CCCAAAG	0.103	0.12	-0.719	-0.112	0.0733	-1.07	0.228	0.0733	0.149	-0.00669
AACAGTA	0.00802	0.0335	-0.24	-1.77	0.0546	-0.827	-0.339	0.0377	-0.0195	-0.0495
CTGTGCA	0.168	0.0312	-0.386	-0.661	-0.00516	-0.997	-0.0172	-0.0183	0.156	-0.0361
AGTCGGA	-0.0487	-0.0733	0.0929	0.319	-0.0829	-0.111	-0.246	0.0513	0.00136	-0.0462
TAACAGC	-0.0144	-0.06	-0.493	-1.65	0.00514	-1.24	0.0898	-0.021	0.0176	-0.0606
ACCCATC	0.0194	-0.0416	-0.14	-0.0306	0.177	-0.579	0.00597	0.0431	-0.157	-0.0566
CCCTATT	-2.93	-1.82	-0.878	-2.77	-0.29	-0.763	-2.99	-0.153	-0.112	-0.735
GCGCCAG	-0.115	0.124	0.0913	0.385	0.101	0.0917	0.128	0.0558	0.0708	0.0721
AATGGCC	-0.0385	-0.149	-0.0694	0.557	-0.047	0.711	0.0171	-0.0356	-0.116	-0.0799
CTGGTAA	-0.0767	-0.105	-0.115	-0.221	-0.0902	-0.286	0.0543	-0.0685	0.0244	-0.101
GATGGTT	-0.0151	-0.0829	0.295	0.0942	-0.0339	1.28	-0.0591	-0.00622	-0.158	-0.0766
CGGACTT	0.119	-0.00664	0.662	1.68	-0.121	2.12	0.0864	-0.231	-0.0776	0.168
CGCACAT	0.0952	-0.074	0.403	0.77	-0.118	1.07	0.105	-0.185	0.0681	0.0968
ATCAAAC	0.0113	0.0378	-0.0195	-0.197	0.0172	-0.831	0.0767	0.0478	-0.0388	0.0404

Sequence	uncleaved DNA left (log2) [1]	uncleaved DNA left (log2) [2]	uncleaved DNA left (log2) [3]	uncleaved DNA left (log2) [4]	uncleaved DNA left (log2) [5]	uncleaved DNA left (log2) [6]	uncleaved DNA left (log2) [7]	uncleaved DNA left (log2) [8]	uncleaved DNA left (log2) [9]	uncleaved DNA left (log2) [10]
CTCAACA	-0.0348	0.0651	-0.189	-2.37	0.119	-0.669	-0.247	0.0255	-0.0245	0.133
CTCAGAA	-0.0328	0.0233	-0.0625	-0.0384	-0.0789	-0.615	-0.0321	-0.00477	0.0448	0.0375
ACGCTAG	-0.0038	0.0597	-0.564	-0.405	0.137	-1.05	0.188	0.0988	0.0737	-0.102
AGAAAAC	0.0545	0.0482	0.153	0.0543	-0.00733	-0.363	0.042	0.00282	-0.0389	0.0476
TCGGTCG	0.0662	-0.0235	-0.825	-0.41	-0.171	-0.921	0.106	-0.0104	-0.127	-0.193
TTACCAC	-0.041	-0.00114	-0.0502	-2.08	-0.0249	-0.374	-1.18	-0.0742	-0.0146	-0.0889
TTGATTG	0.059	-0.102	-0.351	-0.0349	-0.0706	-0.581	0.0529	-0.119	-0.125	-0.0915
AGCAAGT	0.0916	0.169	0.159	0.316	0.096	0.0882	-0.00268	0.153	0.00948	0.132
CTGTTGC	0.0301	-0.102	-0.696	-0.49	0.102	-1.14	0.0369	-0.132	0.000416	-0.088
GTATTGG	-0.0281	-0.0272	-0.217	-0.216	0.0552	-0.758	3.67e-05	-0.0423	0.00306	-0.0454
AGGATGC	-0.0254	-0.0897	-0.286	-0.0652	-0.143	-0.725	0.161	-0.08	-0.0213	-0.069
AGGAATG	-0.128	-0.122	-0.0198	0.561	-0.168	1.35	-0.00278	-0.0932	-0.186	-0.043
TTTTGGC	-0.0511	-0.167	-0.253	-0.671	-0.123	-1.14	0.0802	-0.186	-0.0252	-0.218
TCGTCCT	-0.414	-0.286	-0.172	-1.89	-0.191	-0.302	-3.15	-0.276	-0.196	-0.184
AACTTCG	0.0345	0.0286	-0.908	-0.138	0.0794	-1.11	0.108	0.0524	0.0928	-0.0113
CTACGGA	0.041	0.0521	0.0492	-0.0279	-0.0642	-0.173	0.0563	0.0541	-0.124	-0.0747
TCAACCA	-0.204	-0.0613	-0.0652	-2.31	-0.101	-0.342	-0.806	-0.0609	-0.0683	-0.0126
CGCTGAT	-0.0601	-0.213	0.0323	0.534	-0.0437	0.706	-0.62	-0.122	-0.0347	0.0183
TGTTGCG	-0.218	-0.25	0.0667	0.938	-0.113	1.48	-0.0865	-0.258	-0.369	-0.246
GCGACGG	-0.038	0.0198	0.0741	0.678	-0.0465	1.73	0.115	0.13	0.031	0.0107
